Values joined by “and” are separate entries in the source; they are usually repeats but may differ in a detail not shown here. Equal entries are not always repeated. In all, about 220,000 compounds went through this assay and about 16,000 (7.3%) were called active. The inconclusive results got no clear call from the source; some entries with a clear call stand among them for comparison. Calls follow the shape of the dose curve; as a rule, active = well fitted inhibition curve with a large enough effect (not every such curve was filed as active); inconclusive = small, poorly fitted or top-dose-only effect, or another doubt; inactive = no such curve, though single readings can be large or run the other way. No potency is given beside an inconclusive call; the fits are too rough.
Target: Aldehyde dehydrogenase 1A1 (Homo sapiens) (UniProt P00352)
Sequence of UniProt P00352 (P00352 whole entry, looked up): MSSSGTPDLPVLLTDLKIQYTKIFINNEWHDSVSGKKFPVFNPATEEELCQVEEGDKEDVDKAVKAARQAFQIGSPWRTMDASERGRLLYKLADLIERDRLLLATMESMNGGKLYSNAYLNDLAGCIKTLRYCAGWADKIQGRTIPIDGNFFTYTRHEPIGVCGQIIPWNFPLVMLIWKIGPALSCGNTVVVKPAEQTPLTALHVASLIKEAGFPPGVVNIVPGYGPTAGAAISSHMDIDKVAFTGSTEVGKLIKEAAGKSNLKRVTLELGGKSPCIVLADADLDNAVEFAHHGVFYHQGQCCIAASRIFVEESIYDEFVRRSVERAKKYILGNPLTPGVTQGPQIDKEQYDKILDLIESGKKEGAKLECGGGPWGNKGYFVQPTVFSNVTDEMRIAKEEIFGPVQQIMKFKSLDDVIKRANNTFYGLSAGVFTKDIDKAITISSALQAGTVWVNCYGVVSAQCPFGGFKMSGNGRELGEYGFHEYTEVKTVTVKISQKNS
Assay: qHTS Assay for Inhibitors of Aldehyde Dehydrogenase 1 (ALDH1A1);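 as to activity, negative = inhibition: plate controls were no enzyme wells and a reference inhibitor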
Conditions: Purified ALDH1A1, NADH fluorescence, propionaldehyde substrate; series mostly up to 75.3 µM
Potency is read from the fitted curve at half-maximal effect; tags tell the direction and shape of the fitted curve.

| SMILES | Potency | activity, negative = inhibition |
| --- | --- | --- |
| CCOc1ccc(C(=O)OCC(=O)NCc2ccco2)cc1OCC | inconclusive [inhibitor, single point] | – |
| O=C(CN1CCCCC1)N1CCCc2c1c(=O)oc1ccc(OCc3ccccc3)cc21 | inconclusive [inhibitor, partial curve] | – |
| COCCn1c(CN2CCc3ccccc3C2)nc2c1c(=O)n(C)c(=O)n2C | inactive | – |
| COC(=O)c1ccccc1NC(=S)NC(=O)c1ccc(C)cc1 | inconclusive [inhibitor, partial curve] | – |
| CCNC(=S)NS(=O)(=O)c1ccc(Cl)cc1 | inconclusive [inhibitor, single point] | – |
| O=c1c(-c2ccc(Cl)cc2)nc2cnc(N3CCNCC3)nc2n1CCc1ccccc1 | inconclusive [inhibitor, partial curve] | – |
| CCN1CCc2nc(NC(=O)c3ccccc3)sc2C1 | inactive | – |
| COc1ccc([N+](=O)[O-])cc1NC(=O)Cc1noc2ccccc12 | inactive | – |
| CCc1cccc(C)c1NC(=S)N(CCCN1CCOCC1)Cc1cccnc1 | inconclusive [inhibitor, single point] | – |
| C[C@H](O/N=C1/[C@H]2O[C@@H]2[C@@H](O)[C@H]2[C@H]1CCn1c(=O)n(-c3ccccc3)c(=O)n12)c1cn([C@H](CO)Cc2ccccc2)nn1 | – | inactive: -12.8% [at 13.5 µM] and inactive: -1.16% [at 13.5 µM] |
| CN1CCc2c(sc(NC(=O)c3cc4cc([N+](=O)[O-])ccc4s3)c2C(N)=O)C1 | inactive | – |
| O=[N+]([O-])c1ccc2c(c1)ncn2-c1ccccc1 | inconclusive [inhibitor, single point] | – |
| COc1ccc(NC(=O)Cn2c(=O)n(-c3ccc(OC)cc3OC)c(=O)c3c(C)c(C)sc32)cc1 | inconclusive [inhibitor, single point] | – |
| Cc1ccc(/C=C2\SC(N3CCN(C(c4ccccc4)c4ccccc4)CC3)=NC2=O)o1 | inactive | – |
| CC(C)(C)NC(=O)C(c1ccc(F)cc1)N(Cc1ccco1)C(=O)c1csnn1 (configuration not stated) | inactive | – |
| NNC(=O)C1CC1c1ccccc1 (configuration not stated) | active: 3.98 µM | – |
| CCOC(=O)C1CCCN(C2CC(=O)N(c3ccc(NC(C)=O)cc3)C2=O)C1 (configuration not stated) | active: 31.6 µM | – |
| O=C(NC(=S)Nc1cccc(NC(=O)c2ccc(Cl)cc2Cl)c1)c1cccs1 | inconclusive [inhibitor, single point] | – |
| CC(C)C[C@@H](CC(=O)N[C@@H](CCCN)CC(=O)N[C@@H]1CCNC[C@H]1C(=O)N[C@H](CC(=O)N[C@@H](CCC(=O)O)CC(=O)O)CC(C)C)NC(=O)[C@@H]1CNCC[C@H]1N | inconclusive [inhibitor, partial curve] | – |
| Cn1nc(-c2ccccc2)c2cc(C(=O)O)sc21 | inconclusive [inhibitor, single point] | – |
| Cc1cc(C)[n+](-c2ccc(F)cc2)c2[nH]c(=O)[nH]c(=O)c12 | inconclusive [inhibitor, partial curve] | – |
| O=C(Nc1cnc2sccn2c1=O)c1ccccc1Cl | inconclusive [inhibitor, partial curve] | – |
| S=C(NCCC(c1ccccc1)c1ccccc1)Nc1ccccc1Cl | inconclusive [inhibitor, partial curve] | – |
| Cc1[nH]c2ccccc2c1C(=O)Cn1c(=O)oc2ccccc21 | inactive | – |

| SMILES | Potency | activity, negative = inhibition |
| --- | --- | --- |
| O=C(CSCc1c(Cl)cccc1Cl)NN1C(=O)c2ccccc2C1=O | inconclusive [inhibitor, single point] | – |
| O=C(O)c1ccc(F)c(S(=O)(=O)Nc2cccc(F)c2)c1 | inactive | – |
| CCOc1ccc(CCNC(=O)CCC(=O)Nc2ccc3nc(N4CCN(C)CC4)cc(C)c3c2)cc1OCC | inconclusive [inhibitor, single point] | – |
| O=C(Nc1cccnc1)c1ccc(CSc2ccccc2)cc1 | inactive | – |
| CN(c1nc2c(c(=O)n(C)c(=O)n2C)n1CC(=O)c1ccccc1)C1CCCCC1 | active: 28.2 µM | – |
| N#CC1=C(SCC(=O)c2cc3ccccc3oc2=O)NC(=O)C(C#N)C12CCCC2 (configuration not stated) | active: 1.12 µM | – |
| Cc1cc(C)c(NC(=O)Nc2ccccc2C)c(Cl)c1 | inactive | – |
| COc1ccc(N2CCN(C(=O)c3ccc(C)c(Cl)c3)CC2)cc1 | inconclusive [inhibitor, single point] | – |
| NC(=O)NC(=O)CSc1nc2sc(-c3ccccc3)cc2c(=O)n1-c1ccccc1 | inconclusive [inhibitor, single point] | – |
| O=C(NC1CCS(=O)(=O)C1)C1C2CC3CC(C2)CC1C3 (configuration not stated) | inactive | – |
| COc1ccc(CCNC(=O)CSc2nc(O)c(CC(C)C)c(=O)[nH]2)cc1OC | inconclusive [inhibitor, single point] | – |
| O=C(CCCOc1ccc(Cl)cc1Cl)Nc1ccncc1 | inconclusive [inhibitor, single point] | – |
| Cc1occc1C(=O)NNC(=O)NC12CC3CC(CC(C3)C1)C2 | inactive | – |
| CCC(=O)N1CCc2cc(S(=O)(=O)CCC(=O)Nc3cccc(F)c3)ccc21 | inconclusive [inhibitor, partial curve] | – |
| COc1cccc(-c2ccc3ncnc(N4CCOCC4)c3c2)c1 | inactive | – |
| Cc1ccc2cc(CCNC(=O)Cc3cccs3)c(=O)[nH]c2c1 | inconclusive [inhibitor, single point] | – |
| O=C(COC(=O)CNC(=O)c1ccccc1)Nc1ccc2c(c1)OCO2 | inactive | – |
| Cc1cc(NC(=O)CSc2nc(-c3cccnc3)ccc2C#N)no1 | inconclusive [inhibitor, single point] | – |
| CC(C)(C)c1csc(NC(=O)Cn2c(=O)oc3ccccc32)n1 | inconclusive [inhibitor, single point] | – |
| O=C(NCC(=O)N(Cc1ccco1)C(C(=O)NC1CCCC1)c1cccnc1)c1cccs1 (configuration not stated) | inconclusive [inhibitor, partial curve] | – |
| COc1cccc(C(=O)N2CCN(C(=O)c3cccc4ccccc34)CC2)c1OC | inconclusive [inhibitor, partial curve] | – |
| Cc1ccc(C(=O)c2cn[nH]c2-c2cc(Cl)ccc2O)cc1 | inconclusive [inhibitor, single point] | – |
| O=C(CCC1CCCN(Cc2ccncc2)C1)NCc1ccc(F)c(F)c1 (configuration not stated) | inactive | – |
| O=C(CC1Nc2cccc3cccc(c23)NC1=O)Nc1ccccc1 (configuration not stated) | inconclusive [inhibitor, single point] | – |

| SMILES | Potency | activity, negative = inhibition |
| --- | --- | --- |
| S=c1nn[nH]n1C12CC3CC(CC(C3)C1)C2 | active: 2.82 µM | – |
| CC/C=C1/OC(=O)c2ccccc21 | inconclusive [inhibitor, partial curve] | – |
| Cc1cccc(NC(=O)c2ccc(C3SCC(=O)N3CCc3ccccc3)cc2)c1C (configuration not stated) | inconclusive [inhibitor, single point] | – |
| CN(CCOc1ccccc1)CC(=O)Nc1ccc([N+](=O)[O-])cc1Cl | inactive | – |
| O=C(O)C1C2CCC(C2)C1C(=O)Nc1cc(F)ccc1F (configuration not stated) | inconclusive [inhibitor, single point] | – |
| CN(c1ccc(C(=O)Nc2ccccc2C(F)(F)F)cc1)S(C)(=O)=O | inactive | – |
| COc1ccc(C2NC(=O)c3ccccc3O2)cc1OC (configuration not stated) | inconclusive [inhibitor, single point] | – |
| COc1ccc(-c2ccccc2)cc1NCc1ccc(OC)c(OC)c1 | inconclusive [inhibitor, single point] | – |
| COc1cccc2sc(N3CCN(c4nc5ccccc5s4)CC3)nc12 | active: 14.1 µM | – |
| O=C(NCCCN1CCOCC1)C(=O)N/N=C/c1c(Cl)cccc1Cl | inactive | – |
| CN1CCCc2cc(C#N)c(=O)[nH]c21 | inconclusive [inhibitor, partial curve] | – |
| CCOC(=O)c1sc(NC(=O)c2ccc(C)s2)cc1C | inconclusive [inhibitor, single point] | – |
| CSc1nnc(-c2cc3c(s2)-c2ccccc2CC3)o1 | inconclusive [inhibitor, partial curve] | – |
| CN1CCc2c1nc1ccccc1c2N=C1CCCN1Cc1ccccc1 | inconclusive [inhibitor, single point] | – |
| Cc1ccc(CN2CCN(C3CCCC3)C(CCO)C2)s1 (configuration not stated) | inactive | – |
| CN(C)S(=O)(=O)c1ccc(C(=O)OCC(=O)Nc2cccnc2Cl)cc1 | inconclusive [inhibitor, partial curve] | – |
| COc1ccc(C2C(C(N)=O)=C(C)Nc3nc(-c4ccccc4Cl)nn32)c(OC)c1 (configuration not stated) | inactive | – |
| CCSc1nnc(-c2ccc(S(=O)(=O)N3CCCC3)cc2)n1C | inconclusive [inhibitor, partial curve] | – |
| N#Cc1c(-c2ccc(C(F)(F)F)cc2)cc(-c2ccccc2)[nH]c1=S | inconclusive [inhibitor, partial curve] | – |
| Cc1cc(C)nc(N(C#N)CC(=O)c2ccccc2)n1 | active: 28.2 µM | – |
| C#CCCCO/N=C1/C[C@@H](O)[C@@H](O)[C@@H]2[C@H]3C(=O)N(c4ccc(F)cc4F)C(=O)[C@@H]3CC[C@H]12 | – | inactive: 8.82% [at 13.5 µM] |
| CCC1CCCCN1C1Sc2ccc(C(=O)OC)cc2NC1=O (configuration not stated) | inconclusive [inhibitor, single point] | – |
| CNC(=O)CSc1nnc(-c2ccccc2)n1C | inactive | – |
| Cn1c(-[n+]2c(-c3ccccc3)cc(-c3ccccc3)cc2-c2ccccc2)nc2cc([N+](=O)[O-])ccc21 | inconclusive [inhibitor, single point] | – |

— PubChem BioAssay AID1030 (National Center for Advancing Translational Sciences (NCATS), 2008)
